# Assay results from ChEMBL document CHEMBL1201862, “PubChem BioAssay data set” (2004).
#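 1) Cells in 96-well plates. 2) Compound, 48 h, 5 concentrations. 3) Linear interpolation between surrounding doses. 4) Unreached endpoint = highest concentration. Here, GI50 denotes the concentration required for 50% inhibition of growth.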 The source made the active and inactive calls. Rule as the data show it: active = GI50 up to about 1.1 µM and inactive = higher. Peptide text beside a SMILES is read from it. * marks the point of attachment. X24 = Clc1c(Cl)c(Cl)c(O*)c(Cl)c1Cl; Boc = CC(C)(C)OC(=O)*; OBn = c1ccc(CO*)cc1; Bn = c1ccc(C*)cc1
# System: NCI-H322M
# Test: NCI tumour cell line growth inhibition, 48 h
row,Structure (SMILES),GI50
1,CN(CCNC(=O)c1nn(-c2ccccc2)c2c1Cc1ccccc1-2)CCNC(=O)c1nn(-c2ccccc2)c2c1Cc1ccccc1-2,inactive: 2.28 µM
2,COc1ccc(OC)c(/C=C2\CCc3ccccc3C2=O)c1,inactive: 4.83 µM
3,Cc1cc(C)c2c(O)cc(-c3ccc4ccccc4c3)nc2n1,inactive: 37.2 µM
4,CC(C)N(C(=O)C12C3C4C5(C(=O)O)C(C1C35I)C42C(=O)O)C(C)C (configuration not stated),inactive: > 100 µM
5,C[C@@H]1C[C@H](O)[C@]2(O)O[C@@H]3C[C@@]4(C=O)[C@@H](CC=C5[C@@H]4CC[C@]4(C)[C@@H](C6=CC(=O)OC6)CC[C@]54O)C[C@H]3O[C@@H]2O1,active: < 0.018 µM
6,O=C1c2ccccc2-c2c1c1ccccc1c(=O)n2-c1ccccc1,inactive: 7.6 µM
7,Cc1nc2nc3c(ncn3COCCO)c(O)n2c1C(c1ccccc1)(c1ccccc1)c1ccccc1,inactive: 15.4 µM
8,Cn1cnc([N+](=O)[O-])c1Sc1nnnn1-c1ccccc1,inactive: 31.9 µM
9,CCNCC(=O)Nc1ccc2c(c1)C(=O)c1ccc(NC(=O)CNCC)cc1C2=O,inactive: 1.58 µM
10,N#CC(C(=O)Nc1ccccc1)C1=C(Cl)C(=O)c2ccccc2C1=O (configuration not stated),inactive: 14.1 µM
11,Cc1nn2c(=O)c([N+](=O)[O-])c(/C=C/c3ccc(F)cc3)nc2s1,inactive: 9.08 µM
12,CC(C)[C@H]1NC(=O)[C@H]2N=C(O[C@@H]2C)[C@@H]2CCCN2C(=O)[C@H](Cc2ccccc2)NC(=O)[C@@H]2COC(=N2)[C@@H](Cc2ccccc2)NC(=O)[C@@H]2COC1=N2,inactive: > 100 µM
13,CNCC(=O)Nc1ccc2c(c1)C(=O)c1ccc(NC(=O)CNC)cc1C2=O,inactive: 1.99 µM
14,CCc1c(CN)c(CC)c(CNC2=NCCN2)c(CC)c1CNC1=NCCN1,inactive: > 100 µM
15,COC(=O)C1=C(OC(=O)/C(=C/c2ccccc2)c2ccc(OC)cc2)C(C(=O)OC)[C@@]2(O)[C@@H](C(=O)OC)[C@H](C)C[C@@H]1[C@@H]2C(=O)OC (some centres not stated),inactive: > 100 µM
16,Cc1ccc(NC(=O)C(=O)CC(=O)c2c(C)[n+]([O-])c3ccccc3[n+]2[O-])cc1,inactive: 21.2 µM
17,CCOC(=O)CCC(NC(=O)c1ccc(Oc2nc3ccccc3nc2-c2ccccc2)cc1)C(=O)OCC (configuration not stated),inactive: > 85.5 µM
18,CCOC(=O)C(=O)Nc1c(C)cccc1C(C)(C)C,inactive: > 100 µM
19,CC1=CN(c2ccccc2)S2=C1c1sc3c(c1N2c1ccc(Br)cc1)CCCC3 (configuration not stated),inactive: > 100 µM
20,CN1C(=O)CSC1=S [3-METHYL-RHODANINE],inactive: > 100 µM
21,N#CC(NCCc1ccccc1)c1ccc(C(C#N)NCCc2ccccc2)cc1 (configuration not stated),inactive: > 100 µM
22,S=C1CCSc2c(ccc3ccccc23)N1,inactive: > 100 µM
23,O=c1c2ccccc2nc(-c2cccc([N+](=O)[O-])c2)n1O,inactive: 35.7 µM

row,Structure (SMILES),GI50
1,O=C1/C(=C/c2ccc(OC(=O)c3ccc(Cl)cc3)cc2)CCC/C1=C\c1ccc(OC(=O)c2ccc(Cl)cc2)cc1,inactive: > 100 µM
2,CNC(=O)OCc1cc2ccncc2c2c1[nH]c1ccccc12,inactive: > 100 µM
3,O=C1Nc2ccccc2/C1=C1/Nc2ccccc2/C1=N/OCCOCCO,active: 0.959 µM
4,O=C(C[n+]1ccccc1)N/N=C(\Cc1nc2ccc([N+](=O)[O-])cc2nc1O)C(=O)Nc1cc(Cl)c(Cl)cc1Cl,inactive: > 100 µM
5,O=c1[nH]n(Cc2ccccc2)c2ccc([N+](=O)[O-])cc12,inactive: > 100 µM
6,N#CC1=C(N)OC(c2cccc([N+](=O)[O-])c2)C1(C#N)C#N (configuration not stated),inactive: 16.2 µM
7,CSc1ncc2c(n1)-c1ccccc1OC2NC1CC1 (configuration not stated),inactive: > 100 µM
8,C=C(C(=O)O[C@H]1C(=O)C2=C(C)CCC3C(=C)C(=O)O[C@@H]3C2[C@]1(C)O)C1CC[C@]2(C)CCCC(=C)[C@H]2C1 (some centres not stated),inactive: 15.8 µM
9,CCCCC(/C=N/NC(=N)N)CC.Cc1cc(O)c(C(C)C)cc1S(=O)(=O)O,inactive: > 100 µM
10,Cc1cc2sc(C)[n+](CCCOS(=O)(=O)[O-])c2cc1C,inactive: > 100 µM
11,Oc1cc(-c2ccccn2)nc2cccc(F)c12,inactive: > 100 µM
12,N#CCc1nc(-c2cc3ccc(O)cc3oc2=O)cs1,inactive: 39.4 µM
13,N#C/C(C(=S)NCc1ccccc1)=C(/N)N1CCCC1,inactive: > 100 µM
14,COC(=O)c1c(O)ccc2c1c1c(n2Cc2ccccc2)C(=O)c2ccccc2C1=O,inactive: 14.2 µM
15,Nc1nnc2oc3ccc4ccccc4c3cc1-2,inactive: 26.1 µM
16,CCCCCCCCCC(=O)Oc1cccc2onc(C)c12,inactive: > 100 µM
17,O=C(SCc1cccc2ccccc12)c1ccc(Cl)cc1,inactive: > 100 µM
18,CCOC(=O)C1=C(C)N(NC(=O)Nc2ccccc2)C2(N)N(NC(=O)Nc3ccccc3)C(C)=C(C(=O)OCC)C12C(=O)OCC (configuration not stated),inactive: 63.8 µM
19,CCOC(=O)c1oc2ccc([N+](=O)[O-])c3c2c1CCC3,inactive: > 100 µM
20,CC(C)[Si](OC1=C(C(=O)N(C)c2ccccc2Cl)CCCC1)(C(C)C)C(C)C,inactive: 14.1 µM
21,COc1cc2c(c(OC)c1OC)-c1ccc(SC)c(=O)cc1[C@@H](O)CC2,active: 0.000635 µM
22,S=C(c1c[nH]c2ccccc12)N1CCN(Cc2ccccc2)CC1,inactive: 21.8 µM
23,O=C1O[B-](c2ccccc2)(c2ccccc2)[NH2+]C1CS (configuration not stated),inactive: > 100 µM

row,Structure (SMILES),GI50
1,COc1ccc2c(c1)C(=O)N1CCOC1C2C(=O)O (configuration not stated),inactive: > 100 µM
2,CCCCCCCCCCCCCCCCCCOc1ccc(/C=C/C2=[N+](CCCl)CCO2)cc1,inactive: > 100 µM
3,Cn1nc(-c2ccccc2)c(N=[N+]=[N-])cc1=O,inactive: > 100 µM
4,O=C1NC(=O)C2C3C=CC(C12)C1C2C(=O)NC(=O)C2C31 (configuration not stated),inactive: 217 µM
5,O=C(O)COCC(=O)N(CCOCCN(Cc1ccccc1)C(=O)COCC(=O)O)Cc1ccccc1,inactive: > 100 µM
6,CC(CCN)(CCN)[N+](=O)[O-],inactive: > 100 µM
7,Cc1ccc(S(=O)(=O)[N-]C2C(=O)c3ccccc3C(=O)C2[n+]2cccc(C(N)=O)c2)cc1 (configuration not stated),inactive: 38.5 µM
8,CCN(CC)C(=O)CCCCCCCCC1CO1 (configuration not stated),inactive: > 100 µM
9,COc1cc(C(=O)Oc2ccc3c(c2)OCO3)cc(OC)c1OC,inactive: > 100 µM
10,Cc1ccc(SC(C)/C=C/NNC2=NN=C(c3ccccc3)C(c3ccccc3)N2)cc1 (configuration not stated),inactive: 45.1 µM
11,CC1C=CC(C(N)C(=O)O)O1 (configuration not stated),inactive: > 100 µM
12,O=[N+]([O-])c1ccc2nc(/C(=N/Nc3ccccc3)C(O)c3ccco3)c(O)nc2c1 (configuration not stated),inactive: > 100 µM
13,CC(C)CC(NC(=O)C(CCC(=O)OCc1ccccc1)NC(=O)OC(C)(C)C)C(=O)NC(COCc1ccccc1)C(=O)NC(Cc1ccccc1)C(=O)Oc1c(Cl)c(Cl)c(Cl)c(Cl)c1Cl (configuration not stated) (Boc-E(OBn)LS(Bn)F-X24; configuration not given here),inactive: 34.2 µM
14,Cc1c(C(=O)NCCO)[n+]([O-])c2cc(Cl)ccc2[n+]1[O-],inactive: > 100 µM
15,CC(C)(C)OC(=O)C1C(=O)NC(=O)CC1CC(OCc1ccccc1)C(COCc1ccccc1)OCc1ccccc1 (configuration not stated),inactive: 43.9 µM
16,COc1ccc2oc(C(=O)N3CC(CCl)c4ccc(N)cc43)cc2c1 (configuration not stated),inactive: 1.18 µM
17,CCOC(=O)/C(C#N)=C/c1ccc(CO)o1,inactive: > 100 µM
18,Cc1ccc(/C=C/C(=O)C(C)C)cc1,inactive: 92.9 µM
19,C1CNOCCCONCCCNOCCCONC1,inactive: > 100 µM
20,N/C(=N\O)N/N=C/c1ccc2c(c1)OCO2,inactive: 9.53 µM
21,Cc1cc(C)n(-c2c(O)ccc(O)c2-n2nc(C)cc2C)n1,inactive: > 100 µM
22,Cn1c(=O)nc2n(-c3cccc(Cl)c3)c3ccccc3nc-2c1=O,inactive: 20.7 µM
23,CCOC(=O)C(C(=O)OCC)c1ccc([N+](=O)[O-])o1,inactive: 71.8 µM

row,Structure (SMILES),GI50
1,OB(O)c1ccccc1C#Cc1ccccc1B(O)O,inactive: 14.3 µM
2,N/C(=N\c1cccc(Cl)c1)c1ccccc1N,inactive: > 100 µM
3,Cc1ccc(C2=Nc3ccccc3SC(c3cccc4c3OCO4)C2)cc1 (configuration not stated),inactive: 18.7 µM
4,CCOC(=O)CP(=S)(S)c1ccccc1 (configuration not stated),inactive: > 100 µM
5,CCCCCCSc1nc(COC(=O)NC)c(COC(=O)NC)n1C,inactive: > 100 µM
6,COc1cc(-c2cc(=O)c3ccccc3o2)ccc1N,inactive: 90.6 µM
7,O=c1[nH]c2cc(Cl)ccc2nc1/C(=N/Nc1ccccc1)C(O)c1ccco1 (configuration not stated),inactive: > 100 µM
8,CC(=O)c1c(C)n(C)c2c1nnc1ccccc12,inactive: 43.1 µM
9,O=C(Nc1nc(C23CC4CC(CC(C4)C2)C3)cs1)c1cc2cc(Cl)ccc2oc1=O,inactive: > 100 µM
10,O=NN(CCCl)C(=O)N[C@H]1CC[C@H](C(=O)O)CC1,inactive: > 100 µM
11,COc1ccc(/C=C/c2nnc(S)[nH]2)cc1OC,inactive: > 100 µM
12,Cc1ccc2nc(-c3ccc(-n4c(C)nc(=O)c(-c5ccc(F)cc5)c4C)cc3)sc2c1,inactive: 16 µM
13,NC1CC(=O)c2csc(Br)c21 (configuration not stated),inactive: 39.6 µM
14,C[C@H](CO)C1=CC(C#C[Si](C)(C)C)N(C(=O)Oc2ccccc2)c2ccccc21 (some centres not stated),inactive: 13.8 µM
15,[O-][n+]1ccccc1S [PYRITHIONE ZINC],inactive: 2.94 µM
16,CC(C)/C(Cl)=N\OC(=O)Nc1ccc(S(N)(=O)=O)cc1,inactive: 15.5 µM
17,CCOC(=O)C1=C(C)N(Cc2ccccc2)C2(O)C=CC(=O)C3C(=O)N(c4ccccc4)C(=O)C132 (configuration not stated),inactive: 13.4 µM
18,CCSC1=N/C(=C\c2ccco2)C(Nc2ccc(C)cc2)=N1,inactive: > 100 µM
19,O=C(CC(=O)c1ccccc1)CC(O)(c1ccccc1)c1ccccc1,inactive: 7.14 µM
20,Clc1cccc(Cl)c1C1SCc2nc3ncccc3n21 (configuration not stated),inactive: > 100 µM
21,COc1ccc(N2C(=O)[C@@H]3[C@H](C2=O)c2[nH]c4ccccc4c2C2CCC(C(C)(C)C)C[C@@H]23)cc1 (some centres not stated),inactive: 34.4 µM
22,Cc1ccccc1C(=O)Oc1ccc(Oc2ccccc2)cc1,inactive: > 100 µM
23,c1ccc(C2=Nc3nc4ccccc4n3C(c3ccccc3)C2)cc1 (configuration not stated),inactive: > 100 µM
